Our source for the cytotoxicity call and growth inhibition call values is the antibiotic and cytotoxicity screens of Wong et al. (2023).

One assay has as its system HSkMC. Nature of the assay: cytotoxicity call (relative viability < 0.9). As to conditions: 10 µM.
A further assay deals with HepG2. In words: cytotoxicity call (relative viability < 0.9). As to conditions: 10 µM.
A further assay has as its system S. aureus RN4220. Nature of the assay: growth inhibition call (relative growth <= 0.2). Conditions: 50 µM.

SMILES strings stand for the structures. The list shows a part of the results.

On to `Cc1ccc(S(=O)(=O)Nc2ccc3c(c2)C(=O)N([C@H](C)CO)C[C@@H](C)[C@H](CN(C)Cc2ccc(-c4ccccc4)cc2)O3)cc1`, for which the cytotoxicity call in the assay on HSkMC and in the assay with HepG2 was “inactive” each time. The growth inhibition call with S. aureus RN4220 was “inactive”.

Regarding `COc1ccc(S(=O)(=O)Nc2ccc3c(c2)C(=O)N([C@@H](C)CO)C[C@@H](C)[C@H](CN(C)S(=O)(=O)c2ccc(OC)cc2)O3)cc1`, the cytotoxicity call in the assay with HSkMC and with HepG2 was “inactive” each time. In addition, the growth inhibition call in the assay on S. aureus RN4220 is “inactive”.

Turning to `O=C(O)/C=C\C(=O)O`, the cytotoxicity call in the assay with HSkMC and in the assay with HepG2 was “inactive” each time. Further, in the assay on S. aureus RN4220, the growth inhibition call was “inactive”.

As for `CN(C)CCCNC(=O)C[C@@H]1CC[C@H]2[C@@H](COC[C@@H](O)CN2C(=O)c2cc(Cl)cc(Cl)c2)O1`, the cytotoxicity call in the assay on HSkMC and in the assay with HepG2 was “inactive” throughout. Moreover, the growth inhibition call with S. aureus RN4220 was “inactive”.

On to `Cc1ccc(S(=O)(=O)Nc2ccc3c(c2)C(=O)N([C@@H](C)CO)C[C@@H](C)[C@@H](CN(C)Cc2ccccc2)OCCCC[C@H](C)O3)cc1`, for which the cytotoxicity call in the assay on HSkMC and with HepG2 was “inactive” each time. Besides, in the assay on S. aureus RN4220, the growth inhibition call was “inactive”.

On to `COc1cc(O)cc(OC)c1O[C@@H]1O[C@H](CO)[C@@H](O)[C@H](O)[C@H]1O`, for which the cytotoxicity call in the assay with HSkMC and in the assay with HepG2 was “inactive” throughout. The growth inhibition call in the assay with S. aureus RN4220 was “inactive”.

Regarding `C[C@@H]1O[C@@H](O[C@H]2C(=O)c3c(O)cc(O)cc3O[C@@H]2c2ccc(O)c(O)c2)[C@H](O)[C@H](O)[C@H]1O`, the cytotoxicity call in the assay with HSkMC and in the assay with HepG2 was “inactive” throughout. The growth inhibition call in the assay with S. aureus RN4220 is “inactive”.

Regarding `CN(C)CCOC(=O)C(c1ccccc1)C1(O)CCCC1.Cl` (configuration not stated), the cytotoxicity call with HSkMC and with HepG2 was “inactive” each time. For the same molecule, in the assay with S. aureus RN4220, the growth inhibition call is “inactive”.

Consider `COc1ccc(S(=O)(=O)N(C)C[C@H]2Oc3ccc(NC(=O)CCCN(C)C)cc3C(=O)N([C@@H](C)CO)C[C@H]2C)cc1`, for which the cytotoxicity call with HSkMC and in the assay on HepG2 was “inactive” each time. Also, the growth inhibition call in the assay with S. aureus RN4220 is “inactive”.

Regarding `C[C@@H]1CN([C@@H](C)CO)S(=O)(=O)c2ccc(C#Cc3ccc(F)cc3)cc2O[C@@H]1CN(C)C(=O)c1ccccn1`, the cytotoxicity call with HSkMC and in the assay with HepG2 was “inactive” each time. The growth inhibition call in the assay with S. aureus RN4220 was “inactive”.

Regarding `Cn1cnc(S(=O)(=O)N[C@@H]2CC[C@H](CC(=O)N3CCN(c4ccccc4)CC3)O[C@@H]2CO)c1`, the cytotoxicity call in the assay with HSkMC and in the assay with HepG2 was “inactive” each time. Moreover, the growth inhibition call in the assay with S. aureus RN4220 was “inactive”.

For the molecule `C[C@@H]1O[C@@H](O[C@@H]2[C@@H](O)[C@H](O)[C@@H](CO)O[C@H]2c2c(O)cc(O)c3c(=O)cc(-c4ccc(O)cc4)oc23)[C@H](O)[C@H](O)[C@H]1O`, the cytotoxicity call in the assay with HSkMC and in the assay with HepG2 was “inactive” throughout. For the same molecule, the growth inhibition call in the assay on S. aureus RN4220 was “inactive”.

In the case of `CCS(=O)(=O)N1CCO[C@]2(COCCN(c3cncnc3)C2)C1`, the cytotoxicity call in the assay on HSkMC and in the assay with HepG2 was “inactive” throughout. Also, the growth inhibition call in the assay on S. aureus RN4220 was “inactive”.

On to `C[C@H](CO)N1C[C@H](C)[C@@H](CN(C)S(=O)(=O)c2cn(C)cn2)Oc2ccc(NC(=O)c3ccncc3)cc2C1=O`, for which the cytotoxicity call with HSkMC and in the assay on HepG2 was “inactive” throughout. For the same molecule, the growth inhibition call with S. aureus RN4220 was “inactive”.

On to `C[C@H]1CN([C@@H](C)CO)C(=O)c2cc(C#CCN(C)C)cnc2O[C@@H]1CN(C)S(=O)(=O)c1cn(C)cn1`, for which the cytotoxicity call in the assay on HSkMC and with HepG2 was “inactive” in each case. The growth inhibition call in the assay on S. aureus RN4220 is “inactive”.

Regarding `CNC(=O)C[C@@H]1CC[C@H]2[C@@H](COC[C@H](O)CN2C(=O)Nc2ccc3c(c2)OCO3)O1`, the cytotoxicity call with HSkMC and in the assay on HepG2 was “inactive” throughout. Besides, in the assay with S. aureus RN4220, the growth inhibition call was “inactive”.

In the case of `C[C@@H]1CN([C@@H](C)CO)C(=O)Cc2cc(NC(=O)Cc3cn(C)c4ccccc34)ccc2O[C@@H]1CN(C)Cc1ccc(-c2ccccc2)cc1`, in the assay on HSkMC, the cytotoxicity call was “inactive”. In the assay with HepG2, the cytotoxicity call is “active”. The growth inhibition call in the assay with S. aureus RN4220 is “inactive”.

On to `COc1ccc(CN(C)C[C@@H]2Oc3ccc(NC(=O)CCN4CCOCC4)cc3CC(=O)N([C@H](C)CO)C[C@H]2C)cc1`, for which the cytotoxicity call with HSkMC and with HepG2 was “inactive” throughout. Also, the growth inhibition call with S. aureus RN4220 was “inactive”.

As for `C[C@@H]1CCCCO[C@H](CN(C)C(=O)C2CCCCC2)[C@H](C)CN([C@@H](C)CO)C(=O)c2cc(NS(=O)(=O)c3ccc(F)cc3)ccc2O1`, the cytotoxicity call in the assay on HSkMC and with HepG2 was “inactive” each time. Further, in the assay with S. aureus RN4220, the growth inhibition call is “inactive”.

`C[C@@H]1CN([C@@H](C)CO)C(=O)c2cccc(NS(C)(=O)=O)c2O[C@@H]1CN(C)S(=O)(=O)c1ccccc1`: the cytotoxicity call in the assay on HSkMC and in the assay on HepG2 was “inactive” throughout. The growth inhibition call in the assay with S. aureus RN4220 is “inactive”.

On to `Cc1ccc(S(=O)(=O)Nc2ccc3c(c2)C(=O)N([C@@H](C)CO)C[C@H](C)[C@H](CN(C)C(=O)NC2CCCCC2)OCCCC[C@@H](C)O3)cc1`, for which the cytotoxicity call with HSkMC and with HepG2 was “inactive” in each case. Further, the growth inhibition call with S. aureus RN4220 was “inactive”.

As to `C[C@@H]1CN([C@@H](C)CO)C(=O)c2cc(NC(=O)Nc3ccccc3)ccc2O[C@@H](C)C/C=C\CO[C@H]1CN(C)S(=O)(=O)c1ccc(F)cc1`, the cytotoxicity call with HSkMC and in the assay on HepG2 was “inactive” in each case. In addition, the growth inhibition call in the assay on S. aureus RN4220 is “inactive”.

Regarding `C[C@H]1CN([C@@H](C)CO)C(=O)Cc2cc(NC(=O)Nc3ccc(C(F)(F)F)cc3)ccc2O[C@H]1CN(C)Cc1ccc(C(=O)Nc2ccccc2N)cc1`, the cytotoxicity call with HSkMC is “inactive”. The cytotoxicity call in the assay with HepG2 was “active”. For the same molecule, the growth inhibition call in the assay on S. aureus RN4220 was “inactive”.

As to `Cc1noc(C)c1NC(=O)Nc1cccc2c1O[C@@H](CN(C)Cc1ccc(C(=O)Nc3ccccc3N)cc1)[C@H](C)CN([C@H](C)CO)C2=O`, the cytotoxicity call in the assay on HSkMC (human skeletal muscle cells) and with HepG2 was “inactive” each time. In addition, the growth inhibition call with S. aureus RN4220 was “inactive”.
